# Measured values from ChEMBL document CHEMBL4888484, “Replenishing the malaria drug discovery pipeline: Screening and hit evaluation of the MMV Hit Generation Library 1 (HGL1) against asexual blood stage Plasmodium falciparum ,using a nano luciferase reporter read-out” (2022).
# The whole screen tested about 150,000 compounds, of which about 540 (0.36%) showed an effect of 50% or more. The list shows a part of the results.
# Tested on: Plasmodium falciparum
# Assay: Primary screen in NF54 nanoGlo assay, in single point, at 2uM, 72h; a lower Z score goes with more inhibition
# Assay type: functional, Erythrocyte
# Details: timepoint 72 hour
SMILES,% Inhibition [%],Z score
Cc1cnc(C(=O)NC[C@H]2Cn3cccc3CN2Cc2ccccc2)cn1,-5,0.98
Cc1cccc(NC(=O)C(=O)NCCCc2ccccc2)n1,-11,1.68
Cc1c(NC(=O)N2CCc3n[nH]cc3C2)cccc1N1CCCC1,-9,1.93
C[C@H]1Cc2cc(S(N)(=O)=O)ccc2N1S(=O)(=O)c1ccccc1-c1ccccc1,-10,1.84
O=C(O)[C@@H]1Cc2nc[nH]c2CN1Cc1ccccc1Cn1cccn1,-9,1.16
CN(C)Cc1ccnc(NC(=O)N[C@H]2CCOC23CCCC3)c1,-1,0.13
CN1CC(C(=O)NOCc2ccccc2)C(C(F)(F)F)C1 (centres undefined),-3,0.67
CCc1nsc(NCCCc2ncnn2C)n1,-3,0.27
COCCn1cnnc1CCNC(=O)c1cc2c(cc1C)OCCO2,1,-0.1
CCc1noc(-c2cn(C3CCN(C(=O)c4sccc4C)CC3)nn2)n1,-4,0.43
Cc1ccc(F)c(NC(=O)C(=O)NCCCc2nc(C)no2)c1,-3,0.31
CCn1c(COC(=O)c2sc(C)nc2C)nc2cc(S(=O)(=O)N(C)C)ccc21,-6,0.59
COc1ccccc1CNC(=O)c1nc(-c2cn(-c3ccc(Br)cc3)nc2C)no1,-12,1.53
CC1(C)CC[C@H](NC(=O)CCn2cnccc2=O)c2ccccc21,-8,0.69
Cc1cc(C)nc(-n2cc(C(=O)NCC#Cc3ccccn3)c(C(C)C)n2)n1,1,-0.12
Cc1ccc(CN(CCc2c[nH]c3ccccc23)Cc2nc(C(=O)NC[C@H]3CCCO3)co2)c(C)c1,2,-0.3
COCCOCC(=O)N1CCC(N2CC3(CCCCC3)[C@H]2c2ccccc2)CC1,-1,0.19
COC1CCCCCC1NC(=O)N1CCC(C(C)O)C1 (centres undefined),-17,3.28
CNc1nn(CC(=O)NCCC2=CCCCC2)c(N)c1-c1nc(-c2ccc(C)cc2)no1,-21,2.65
CO[C@H](C(=O)Nc1nc2c(Cl)cccc2n1C)C(C)C,-2,0.45
COC[C@H]1CCN(C(=O)N2CCC(c3noc(C(C)C)n3)CC2)C1,-12,1.6

SMILES,% Inhibition [%],Z score
O=C(NC[C@H]1CC2c3ccccc3C1c1ccccc12)C1CCC1,16,-1.33
COC(=O)[C@@H]1C[C@@H](O)CN1Cc1coc(-c2ccccc2)n1,2,-0.31
O=C(NCCC1=CCCCC1)c1cccc(-n2cnnn2)c1,-7,1.19
Cc1n[nH]nc1C(=O)OCCNS(=O)(=O)c1ccccc1,-1,0.18
CC(=O)C1C(c2ccncc2)NC(=O)NC1(O)C(F)(F)F (centres undefined),5,-0.73
Cc1cnc2c(c1)N(C(=O)C[C@H]1CCC(=O)NC1)CC2,-16,2.49
Cn1c2ccccc2c2cc(/C=C(\NC(=O)c3ccccc3)C(=O)O)ccc21,-31,3.63
OC1(CNc2ccccn2)CCOCC1,-2,0.17
O=C(Nc1ccc2nc(N3CCC(N4CCCCC4)CC3)cc(C(=O)O)c2c1)c1ccc(F)cc1,-21,2.4
O=C(Nc1ccccc1C(F)(F)F)N1CCCN(c2nc(Cc3ccccc3)nc3onc(-c4ccccc4)c23)CC1,3,-0.26
Cc1nc2cc(CNC(=O)[C@H](C3CC3)N3CCCC3)ccc2n1C1CC1,-10,1.04
C[C@@H](O)CN1CCN(C2CCc3ccccc3NC2=O)CC1 (some centres undefined),0,0.03
Cn1nc(C2CC2)cc1CNC(=O)Nc1cc([C@@H]2CCCO2)nn1C,-7,1.31
CC1CN(C(=O)CCn2nnc3ccccc3c2=O)CC(C)O1 (centres undefined),-3,0.53
Cn1cncc1C(=O)NCc1cccc(C(F)(F)F)n1,7,-1.16
FC(F)[C@@H]1CN(c2nc3ccccc3o2)CCO1,-10,1.82
COC(=O)C(C)CN1CCOC(c2nc(C)n[nH]2)C1 (centres undefined),0,-0.01
Nc1cccc(-c2ccc3nnc(-c4cccnc4)n3n2)c1,-4,0.68
O=C(c1ccccc1Cl)N1Cc2cnc(N3CCOCC3)nc2C1,-10,1.92
O=C(Cc1ccsc1)N1CC[C@@](C(=O)O)(C(F)(F)F)C1,-5,0.58
Cc1cc(NC(=O)Cc2ccc(C)c(C)c2)on1,-2,0.32
